Source: PubChem BioAssay AID686979 (National Center for Advancing Translational Sciences (NCATS), 2013)
Where “and” joins values, the source holds several entries; their conditions need not be identical. Equal values may be shown once. About 50,000 (12%) of roughly 420,000 compounds were called active. The inconclusive results got no clear call from the source; some entries with a clear call stand among them for comparison. The call rests on the fitted dose curve; in most records, active means well fitted inhibition curve with a large enough effect; inconclusive means small, poorly fitted or top-dose-only effect; inactive means flat fitted curve, though single readings scatter. Potencies of inconclusive entries are doubtful fits and often do not repeat.
On the % scale 0 is the no-effect control and ±100 the full control effect; potency means the concentration at half of the fitted maximal effect; tags describe the fitted curve by direction and shape.

Test: qHTS for Inhibitors of human tyrosyl-DNA phosphodiesterase 1 (TDP1): qHTS in cells in presence of CPT; further: nearly all actives have a fitted effect of over 55% in size
Conditions: chicken DT40 Tdp1-/-;hTDP1 cells + 20 nM CPT, ATP luminescence, 48 h; activity change, negative = growth inhibition: at 46.2 µM (top of the series) unless noted
How it was run: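 Chicken DT40 Tdp1-/- cells stably complemented with human TDP1 were seeded at 400 cells/well in medium containing 20 nM camptothecin, exposed to pin-transferred compounds, and grown at 37 °C for at least 48 hr. Viability was read as ATP luminescence.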
For `COc1ccc(CC(=O)N/N=C/c2cc(Br)cs2)cc1OC`, the “activity change, negative = growth inhibition” value was inactive: -23.5%. For `COc1ccc(/C=N/Nc2cc(N3CCOCC3)nc(C)n2)c(OC)c1`, the Potency was inconclusive: 29.1 µM [inhibitor, single point]. With `O=C(NCC(c1ccco1)N1CCN(c2ccccc2F)CC1)c1ccco1` (stereo not drawn) the “activity change, negative = growth inhibition” value was inactive: -23.5%. With `CC(Sc1nc2ccc(C(=O)c3ccccc3)cc2[nH]1)C(=O)O` (stereo not drawn) the “activity change, negative = growth inhibition” value was inactive: 4.78%. With `Cn1c(=O)c2c(nc(SCCN3CCOCC3)n2Cc2cccc3ccccc23)n(C)c1=O` the Potency was active: 8.2 µM. For `Cc1nc2ccc(NC(=O)Cc3ccsc3)cc2s1`, the Potency was active: 16.4 µM. For `NS(=O)(=O)c1ccc(NCC2COc3ccccc3O2)c([N+](=O)[O-])c1` (stereo not drawn), the Potency was inconclusive: 25.9 µM [inhibitor, single point]. In the case of `Cc1ccc(Cn2c(SCC(=O)NCc3ccccc3Cl)nc3ccsc3c2=O)cc1`, the Potency is reported as inconclusive: 29.1 µM [inhibitor, single point]. For `Cc1cc(S(=O)(=O)N2CCCOC2CNC(=O)C(=O)NCc2cccs2)ccc1F` (stereo not drawn), the Potency was inconclusive: 29.1 µM [inhibitor, single point]. In the case of `C/C(Cl)=C/Cn1c(=O)c2c(nc(Br)n2Cc2ccccc2)n(C)c1=O`, the Potency is reported as inconclusive: 18.4 µM [inhibitor, single point]. With `CCN1CCN(C(c2ccccc2OC)c2nnnn2C2CCCCC2)CC1` (stereo not drawn) the “activity change, negative = growth inhibition” value was inactive: 4.34%. In the case of `Cc1cc(OCC(=O)OCC(=O)NCc2cccs2)ccc1Cl`, the “activity change, negative = growth inhibition” value is reported as inactive: -6.75%. With `O=C(c1ccc(-c2cccc([N+](=O)[O-])c2)o1)N1CCN(c2ccc([N+](=O)[O-])cc2)CC1` the Potency was active: 6.51 µM. In the case of `Cc1nc2cc(C(=O)NC3CCCCCC3)ccc2n1-c1ccc(Br)cc1`, the Potency is reported as inconclusive: 18.4 µM [inhibitor, single point]. For `CCC1(c2ccc(OC)cc2)NC(=O)N(CC(=O)NC2CCCCC2C)C1=O` (stereo not drawn), the Potency was inconclusive: 29.1 µM [inhibitor, single point]. With `CC(=O)c1cc(Cl)ccc1OCC(=O)NC1CCCC1` the Potency was inconclusive: 29.1 µM [inhibitor, single point]. With `CC(=O)NC(c1ccc(F)c(F)c1)c1nc(-c2cccc(F)c2)cs1` (stereo not drawn) the Potency was active: 20.6 µM. With `Cc1ccc([N+](=O)[O-])c(C)[n+]1C` the Potency was inconclusive: 23.1 µM [inhibitor, single point]. For `Cc1ccc(C)c(N2CCN(C(=O)CSc3ccsc3[N+](=O)[O-])CC2)c1`, the Potency was inconclusive: 29.1 µM [inhibitor, single point]. With `CC(=O)N1c2ccc(S(=O)(=O)N(C)CC(=O)Nc3cccc(C)c3)cc2CC1C` (stereo not drawn) the Potency was inconclusive: 16.4 µM [inhibitor, partial curve]. With `CCN(C(=O)c1ccc(C(C)(C)C)cc1)c1nnc(Cn2nnc3ccccc32)s1` the Potency was active: 7.31 µM. For `Cc1ccccc1CC(=O)OCC(=O)Nc1ccc(C)c(S(=O)(=O)N2CCCCC2)c1`, the “activity change, negative = growth inhibition” value was inactive: -20.9%. In the case of `CCN(CC)c1cnn(C/C(=N\OC)c2ccc(Cl)cc2)c(=O)c1Br`, the Potency is reported as inconclusive: 29.1 µM [inhibitor, single point]. In the case of `C[C@H]1C(c2ccc(F)cc2)=NN(c2ccccc2)[C@@H]1CO`, the Potency is reported as active: 18.4 µM. With `C[C@@H]1CN([C@@H](C)CO)C(=O)CCCn2nncc2CO[C@@H]1CN(C)S(=O)(=O)c1ccc2c(c1)OCCCO2` the “activity change, negative = growth inhibition” value was inactive: 6.68%. In the case of `COc1ccc(OC)c(C(=O)c2ccc(C(=O)N3CCCCC3)cc2)c1`, the “activity change, negative = growth inhibition” value is reported as inactive: -24.1%. With `CC1Cc2ccccc2N1S(=O)(=O)c1cccc(C(=O)N2Cc3ccccc3CC2C(N)=O)c1` (stereo not drawn) the Potency was active: 16.4 µM. For `Cc1cccc(CNC(=O)C2CCC(=O)N(CC3CCCCC3)C2)c1` (stereo not drawn), the Potency was inconclusive: 20.6 µM [inhibitor, single point]. With `CSc1ccc(C(=S)N2CCCCCC2)cc1` the “activity change, negative = growth inhibition” value was inactive: -28.1%. With `Cc1cc(-c2ccc(C)c(S(=O)(=O)NCCc3ccc(S(N)(=O)=O)cc3)c2)on1` the Potency was inconclusive: 23.1 µM [inhibitor, single point] and inconclusive: 29.1 µM [inhibitor, single point]. For `COc1ccc(-c2cc(C)no2)cc1S(=O)(=O)N(C)Cc1ccco1`, the activity change, negative = growth inhibition was inconclusive: -32.7% [inhibitor]. For `CCOc1cc(/C=C2/C(=O)NN(c3cccc(Cl)c3)C2=O)ccc1O`, the “activity change, negative = growth inhibition” value was inactive: 3.54%. For `C=CCNc1nc(N)c([N+](=O)[O-])c(NC2CCCCC2)n1`, the activity change, negative = growth inhibition was inconclusive: -31.8% [inhibitor]. In the case of `c1ccc(Cn2nnnc2C(c2cccs2)N2CCSCC2)cc1` (stereo not drawn), the “activity change, negative = growth inhibition” value is reported as inactive: -8.69%. In the case of `Nc1ccc(-c2cn3cccnc3n2)cc1`, the Potency is reported as inconclusive: 29.1 µM [inhibitor, single point]. With `C=CCNC(=S)N/N=C/c1cn(-c2ccccc2)nc1-c1ccc(OC)cc1` the “activity change, negative = growth inhibition” value was inactive: -27.5%. For `CC1(C)CC(=O)c2cnc3nc4ccccc4n3c2C1`, the “activity change, negative = growth inhibition” value was inactive: -28.7%. With `CCCCC(=O)Nc1ccccc1C(=O)N1CCOCC1` the Potency was inconclusive: 14.6 µM [inhibitor, partial curve]. With `Clc1ccc(COn2c(-c3ccc(Cl)cc3Cl)nc3ncccc32)cc1` the Potency was inconclusive: 25.9 µM [inhibitor, single point]. For `CC(/C=C/c1ccccc1)=N\NC(=O)c1cc(C)nc2ccccc12`, the Potency was inconclusive: 23.1 µM [inhibitor, single point]. For `CN(C)C(=O)c1ccc(N/C=C(\C=O)c2nc3ccccc3o2)cc1`, the “activity change, negative = growth inhibition” value was inactive: -3.97%. For `Cc1cccc(OCC(O)Cn2c(N3CCCCC3)nc3c2c(=O)[nH]c(=O)n3C)c1` (stereo not drawn), the Potency was inconclusive: 20.6 µM [inhibitor, single point]. With `O=C(NNc1nc(-c2ccc(F)cc2)cs1)c1ccccc1` the Potency was active: 2.59 µM. With `CCN(CCCC(=O)c1ccc(F)cc1)CCc1ccccc1` the Potency was inconclusive: 16.4 µM [inhibitor, single point]. For `O=C(CCCC1=NS(=O)(=O)c2ccccc2N1)OCc1ccc(Cl)cc1`, the Potency was inconclusive: 29.1 µM [inhibitor, single point]. For `CCCNC(=O)c1cc(C2CCCCN2C(=O)c2ccc3c(c2)CCO3)on1` (stereo not drawn), the “activity change, negative = growth inhibition” value was inactive: -12.2%. With `CC(=O)Nc1cc(-c2cccc(NS(C)(=O)=O)c2)cn2c(-c3ccccc3)cnc12` the Potency was inconclusive: 18.4 µM [inhibitor, single point]. For `O=C(COc1ccc(Cl)cc1)NCCNc1ccc([N+](=O)[O-])cc1`, the “activity change, negative = growth inhibition” value was inactive: -9.48%. In the case of `CCCCN1C(=O)C(CC(=O)NCc2cccc3ccccc23)CC(C(=O)N(CC)CC)=C1C` (stereo not drawn), the Potency is reported as inconclusive: 20.6 µM [inhibitor, single point]. For `COc1ccc(/C=C2\SC(=S)N(CCCC(=O)N3CCN(C)CC3)C2=O)cc1`, the Potency was inconclusive: 18.4 µM [inhibitor, single point]. With `Cc1ccc(NC(=O)COC(=O)c2ccc(-n3cccn3)cc2)cc1C` the “activity change, negative = growth inhibition” value was inactive: -7.61%. With `C=C(C)CN(CC)c1nc(N)c2c(N)nc3c(c2c1C#N)CC(=O)N3C12CC3CC(CC(C3)C1)C2` the Potency was active: 3.26 µM. With `COC(=O)c1cn(-c2ccccc2)nc1-c1ccccc1` the Potency was inconclusive: 14.6 µM [inhibitor, single point]. For `CCCc1cc(=O)[nH]c(SCC(=O)CSc2nc(CCC)cc(=O)[nH]2)n1`, the Potency was inconclusive: 23.1 µM [inhibitor, single point]. With `CN(Cc1ccccc1)CC(O)COc1ccc(CNCc2cc3ccccc3s2)cc1` (stereo not drawn) the Potency was inconclusive: 20.6 µM [inhibitor, single point]. In the case of `CN(CC(=O)Nc1ccncc1)S(=O)(=O)c1ccc(Cl)cc1`, the activity change, negative = growth inhibition is reported as inconclusive: -32.5% [inhibitor]. With `CC(C)CC(=O)Nc1nnc(SCC(=O)Nc2ccc(F)cc2)s1` the Potency was inconclusive: 29.1 µM [inhibitor, partial curve, poor fit]. For `O=C(C1CC(=O)N(c2ccc(F)c(Cl)c2)C1)N1CCOCC1` (stereo not drawn), the “activity change, negative = growth inhibition” value was inactive: -3.25%. With `COc1ccc(S(=O)(=O)N2CCC(C(=O)Nc3ccccc3N3CCCCC3)CC2)cc1OC` the Potency was inconclusive: 29.1 µM [inhibitor, single point]. In the case of `Cc1cccc(N2C(S)=C(C#N)C(=O)NC2c2cccs2)c1` (stereo not drawn), the Potency is reported as active: 14.6 µM. For `Cc1ccc(CN2c3ccccc3S(=O)(=O)c3ccccc32)cc1`, the Potency was active: 25.9 µM. For `CCOC(=O)/C(=C\c1c[nH]c2ccccc12)NC(C)=O`, the Potency was inconclusive: 25.9 µM [inhibitor, single point]. With `COc1ccc(S(=O)(=O)N2CCCCCC2)cc1Br` the “activity change, negative = growth inhibition” value was inactive: -14.4%. In the case of `Nc1nc(SCc2ccccc2)c2ncn(C3CCCO3)c2n1` (stereo not drawn), the Potency is reported as inconclusive: 23.1 µM [inhibitor, single point]. For `CCOCCCNC(=S)N1CCC(C(=O)c2ccc(C)cc2)CC1`, the Potency was active: 18.4 µM. In the case of `O=C(NC1CCCC1)c1ccc(CS(=O)(=O)c2ccc(Br)cc2)o1`, the “activity change, negative = growth inhibition” value is reported as inactive: -24.7%. For `CCOC(=O)C1=C(C)NC(=S)NC1c1ccc(-c2ccc(Cl)cc2)o1` (stereo not drawn), the Potency was inconclusive: 23.1 µM [inhibitor, single point]. For `CC1=NN(c2cccc(C(=O)O)c2)C(=O)/C1=C\C=C\c1ccco1`, the Potency was inconclusive: 29.1 µM [inhibitor, single point]. For `Cn1c(=O)c2c(nc(CN3CCCCC3)n2Cc2c(F)cccc2Cl)n(C)c1=O`, the Potency was inconclusive: 16.4 µM [inhibitor, partial curve, poor fit]. In the case of `Cc1ccc(NC(=O)C2CCN(C(=O)NC3CCCCC3)CC2)cc1Cl`, the Potency is reported as inconclusive: 23.1 µM [inhibitor, partial curve]. With `Cc1ccc(C2SCC(=O)N2Cc2ccccc2)cc1` (stereo not drawn) the Potency was inconclusive: 25.9 µM [inhibitor, single point]. For `Cc1cccc(Cn2c(SCCO)nc3c2c(=O)n(C)c(=O)n3C)c1`, the Potency was active: 25.9 µM. In the case of `CCCCc1cc(=O)oc2cc(OC(C)C(=O)NCc3ccccn3)c(Cl)cc12` (stereo not drawn), the Potency is reported as inconclusive: 16.4 µM [inhibitor, single point].
